According to the supplement of paper PMC12217912:
The other results are listed elsewhere or left out. The full chains were built here from the parent and the listed change. Values near 0.05 are background.

B1: TEV protease; numbered along this chain (parent)
chain: MGESLFKGPRDYNPISSSICHLTNESDGHTTSLYGIGFGPFIITNKHLFRRNNGTLVVQSLHGVFKVKDTTTLQQHLVDGRDMIIIRMPKDFPPFPQKLKFREPQREERICLVTTNFQTKSMSSMVSDTSCTFPSGDGIFWKHWIQTKDGQCGSPLVSTRDGFIVGIHSASNFTNTNNYFTSVPKNFMELLTNQEAQQWVSGWRLNADSVLWGGHKVFMVKPEEPFQPVKEATQL

Variants of: B1
Experiment: raw area under fraction-flipped curve 0-4 h after induction (AUC4h, not background-subtracted), DNA-recorder readout of cleavage of the substrate (dimensionless); higher = more cleavage of the substrate by the protease variant
Conditions: temperature: 34 °C; time window: 0-4 h after rhamnose induction
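Also: Bxb1 expression induced with 0.2% (w/v) L-rhamnose at OD600 near 0.5, cultures sampled hourly, flipped fraction per protease–substrate barcode pair counted by paired-end Illumina sequencing.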

Variant | area with substrate ENLYFQC | area with substrate ENLYFQD | area with substrate ENLYFQF | area with substrate ENLYFQH | area with substrate ENLYFQI | area with substrate ENLYFQK | area with substrate ENLYFQM | area with substrate ENLYFQP | area with substrate ENLYFQR | area with substrate ENLYFQS | area with substrate ENLYFQV | area with substrate ENLYFQW | area with substrate ENLYFQY | area with substrate ENLYFQG | area with substrate ENLYFQL | area with substrate ENLYFQN | area with substrate ENLYFQT | area with substrate ENLYFQE | area with substrate ENLYFQQ
N177L | 0.141 | 0.0554 | 0.14 | 0.0939 | 0.0447 | 0.0646 | 0.0658 | 0.0618 | 0.0445 | 0.142 | 0.0656 | 0.0716 | 0.0768 | – | – | – | – | – | –
E107Y | – | 0.0699 | – | 0.0712 | 0.0519 | 0.0441 | 0.0903 | – | 0.0479 | 0.108 | 0.0527 | 0.0815 | 0.0786 | 0.138 | 0.0656 | 0.0724 | 0.0573 | – | –
Q227L | 0.118 | 0.0693 | – | – | 0.0578 | 0.0699 | 0.0797 | 0.0603 | 0.0492 | 0.0997 | 0.0624 | – | 0.063 | 0.101 | 0.0746 | 0.0813 | 0.0674 | – | –
I167A | 0.0543 | – | – | – | 0.0508 | 0.061 | 0.0489 | – | 0.0534 | 0.0708 | – | – | 0.0465 | 0.088 | – | – | – | – | –
P222D | 0.126 | – | – | 0.086 | 0.0663 | 0.0675 | 0.0711 | 0.0721 | 0.0654 | 0.105 | 0.0806 | 0.0703 | – | 0.0649 | 0.0471 | 0.079 | 0.0622 | 0.0667 | 0.0602
F180N | 0.0611 | – | 0.0403 | – | – | – | 0.0448 | 0.0408 | 0.0339 | 0.0535 | 0.0628 | 0.0417 | 0.0482 | 0.064 | 0.0636 | 0.0523 | 0.043 | – | –
L191A | 0.0797 | – | – | 0.0696 | – | – | 0.054 | – | 0.0577 | 0.076 | – | 0.0456 | 0.0687 | 0.0645 | 0.0529 | 0.0234 | 0.0566 | – | –
L191Y | – | 0.0493 | – | – | 0.0529 | 0.0661 | – | – | 0.0579 | 0.0651 | – | 0.0598 | 0.0408 | – | 0.0622 | 0.0523 | – | 0.0541 | –
V217P | 0.0563 | 0.0632 | 0.0572 | 0.0525 | 0.0733 | 0.0508 | 0.0594 | 0.0376 | 0.0563 | 0.0609 | 0.0528 | 0.0563 | – | 0.0424 | 0.0564 | 0.0557 | 0.0566 | – | 0.0599
K230N | – | – | – | 0.0775 | – | 0.0751 | 0.0862 | 0.0582 | 0.07 | 0.102 | – | 0.068 | – | 0.101 | 0.0639 | – | 0.065 | – | 0.0594
S130Y | – | 0.0607 | – | 0.0795 | 0.0667 | – | 0.0751 | – | – | 0.0869 | – | 0.0624 | – | 0.0801 | – | 0.0742 | 0.0691 | – | –
L73I | – | – | 0.0674 | 0.1 | 0.0636 | 0.0529 | 0.0963 | 0.0483 | 0.0573 | 0.102 | 0.0621 | 0.0644 | 0.0869 | 0.13 | 0.0679 | 0.139 | 0.0577 | – | 0.0849
S171F | 0.0569 | – | – | – | 0.0611 | 0.0478 | – | 0.065 | 0.0654 | 0.0597 | 0.0422 | 0.0712 | – | 0.09 | – | 0.0666 | 0.0593 | – | –
S171M | 0.0663 | 0.0589 | 0.0558 | 0.0559 | 0.0522 | 0.0622 | 0.0683 | – | 0.0601 | 0.0614 | 0.043 | 0.0593 | 0.0604 | 0.0784 | 0.0965 | 0.0584 | 0.0453 | – | 0.0813
